Test results published in the supplement of paper PMC3334620.
The full ranking holds about 33,000 sequences; the median of “E-score (-0.5 to 0.5)” is about -0.053, and the highest 2% start at about 0.37. The list shows a part of the results.

biological target: Hap1 (UniProt P0CE41); assay: PBM E-score (8-mer binding enrichment) (E-score (-0.5 to 0.5)); higher = stronger / more preferred TF binding; most listed sequences are background and not binding sites; settings: protein concentration: 200 nM; construct: GST-DNA-binding domain
Outline: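 Full-length yeast transcription factors or their DNA-binding domains, GST-tagged and expressed with PURExpress, were applied at about 100-200 nM to universal all-10-mer Agilent arrays. These arrays had been made double-stranded by primer extension on fresh or once-stripped slides. Detection used fluorescent anti-GST, normalisation used masliner, and E-scores for ungapped eight-base words pooled with reverse complements came from the Universal PBM Analysis Suite.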

UniProt P0CE41, sequence (P0CE41 whole entry, the tested form may be a part): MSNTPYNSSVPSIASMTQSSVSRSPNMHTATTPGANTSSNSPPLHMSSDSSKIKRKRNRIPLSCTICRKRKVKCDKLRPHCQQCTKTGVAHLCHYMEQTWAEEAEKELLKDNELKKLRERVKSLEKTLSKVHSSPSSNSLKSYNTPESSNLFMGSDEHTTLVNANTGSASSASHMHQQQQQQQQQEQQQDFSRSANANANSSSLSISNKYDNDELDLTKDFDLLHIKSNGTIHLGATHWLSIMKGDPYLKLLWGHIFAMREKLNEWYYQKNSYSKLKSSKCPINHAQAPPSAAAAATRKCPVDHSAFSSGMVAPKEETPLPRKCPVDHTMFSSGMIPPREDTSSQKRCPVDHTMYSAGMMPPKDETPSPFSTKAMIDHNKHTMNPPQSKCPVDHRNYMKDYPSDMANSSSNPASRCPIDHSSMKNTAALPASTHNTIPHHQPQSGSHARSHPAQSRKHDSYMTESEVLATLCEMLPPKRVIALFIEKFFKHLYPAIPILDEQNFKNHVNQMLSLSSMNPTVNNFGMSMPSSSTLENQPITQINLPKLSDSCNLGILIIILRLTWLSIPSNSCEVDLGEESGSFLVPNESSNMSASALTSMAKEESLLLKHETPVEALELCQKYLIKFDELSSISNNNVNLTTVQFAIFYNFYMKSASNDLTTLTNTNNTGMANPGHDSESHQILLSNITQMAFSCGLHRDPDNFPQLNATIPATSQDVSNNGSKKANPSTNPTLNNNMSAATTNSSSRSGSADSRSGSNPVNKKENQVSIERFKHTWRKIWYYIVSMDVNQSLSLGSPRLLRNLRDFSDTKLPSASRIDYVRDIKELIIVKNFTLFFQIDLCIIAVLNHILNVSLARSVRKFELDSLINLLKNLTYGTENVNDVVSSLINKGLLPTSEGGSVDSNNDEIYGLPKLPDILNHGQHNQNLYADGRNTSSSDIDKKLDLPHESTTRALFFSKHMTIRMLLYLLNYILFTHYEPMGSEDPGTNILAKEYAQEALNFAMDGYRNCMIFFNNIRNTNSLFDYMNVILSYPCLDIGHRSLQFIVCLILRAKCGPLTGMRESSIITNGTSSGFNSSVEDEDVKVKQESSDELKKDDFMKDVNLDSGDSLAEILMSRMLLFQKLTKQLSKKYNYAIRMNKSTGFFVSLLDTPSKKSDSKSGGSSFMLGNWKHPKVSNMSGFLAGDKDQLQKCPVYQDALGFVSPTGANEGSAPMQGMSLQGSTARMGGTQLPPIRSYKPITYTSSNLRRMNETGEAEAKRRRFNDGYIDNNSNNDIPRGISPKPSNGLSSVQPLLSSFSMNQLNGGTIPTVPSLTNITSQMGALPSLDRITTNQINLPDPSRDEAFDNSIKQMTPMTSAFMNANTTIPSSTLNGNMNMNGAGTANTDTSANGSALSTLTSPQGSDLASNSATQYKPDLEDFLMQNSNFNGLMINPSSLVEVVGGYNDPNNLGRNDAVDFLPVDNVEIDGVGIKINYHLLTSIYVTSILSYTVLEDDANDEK

Sequence	PBM E-score
GTCTCCAA	-0.102
CCGACGTA	0.269
GTACTAAA	-0.00722
CCTCCTAC	-0.263
CCCCGGAC	0.397
CACCCGGA	0.364
CTTACAGC	-0.112
CCACTCAG	-0.21
CAACGGAG	0.256
CTTACTAC	-0.111
ATCGCCCC	-0.0327
GGAGGGAC	-0.0986
CAGGACTG	-0.342
TCCCTCGA	-0.178
CGAACGCG	0.198
GCAACTAA	0.127
CGTTTCGC	0.219
CAAGAAGC	0.0198
AGGCCTCA	-0.261
AGTAAACA	0.0169
GTCGTCTA	-0.209
CCTTCATA	-0.0295
GCCCCGCC	0.215
CGTCGTGA	0.0299
ACTAACGA	-0.132

Sequence	PBM E-score
AGGGGACT	-0.0934
GTGCGCAA	-0.0628
ACCTTTGG	-0.229
GAGTTAGC	0.194
AAGGTAGC	-0.239
CCTGCACG	-0.173
ATGCTACA	-0.147
CTATTGAC	-0.0417
CGTAAGAA	0.113
AGAGCTGC	-0.128
AGTATAGC	-0.167
GATAATCC	0.334
AGCGTTCG	-0.147
ATAGGGCG	0.0891
ATAAGCCA	-0.0858
ACAGGTGG	0.107
CGCCCACA	-0.134
CGCGTACA	-0.0167
AGTGCGTC	-0.0787
GACCATAA	-0.0392
TAAAGGAA	-0.0525
CGTAGACC	0.0187
GCTCACGA	-0.317
GATTGTCC	0.205
CCGCCGGA	0.402

Sequence	PBM E-score
AACCAAGC	-0.0625
ATGCTGTC	-0.243
ATGCGTGA	0.00074
ACAGTTAC	-0.0301
AACCACGC	-0.205
CTATGGTA	-0.098
ACAATATC	0.0476
CGGTCGGA	0.367
CTCGCCAA	-0.0917
CCGCATAG	0.117
GCTTAAAC	-0.103
ACCATGTA	-0.177
ATTTGGTG	-0.267
ATCACCGG	0.382
ATTCCGTA	0.259
AGGAGCAG	-0.162
CATTACTC	0.0705
GTAATGAA	-0.197
AAACCATT	-0.214
ATGTGCCC	-0.0642
CCTGAGTC	-0.0525
GAGAACGC	0.0263
AAACTCGA	-0.0961
CTGCTCGA	-0.125
TAGCCCCA	-0.117

Sequence	PBM E-score
ACCATATG	-0.335
CGCGTGCC	0.0532
CAGAAGAC	-0.145
AGGTCCAG	-0.0779
CCCCCTCC	-0.0459
GTGAGGCA	-0.0762
CTAAGGAA	-0.0347
ACACATGG	-0.253
AAGTCCCT	-0.278
TCCCCTCA	-0.154
GGAGAAGA	0.121
CTTTGCTA	-0.314
GCGTTTAC	-0.00734
CGCCGTAA	0.283
ATATTGGG	0.0378
CCAAAGCG	0.0924
CATGTCAA	-0.227
AGTTAACT	0.197
GAATCAGC	-0.175
AATGACCC	-0.0706
AGAGCGCG	0.012
ATCTCAAC	-0.0257
ACAGGGTG	-0.215
CCCTATTA	-0.216
CAGGCCAA	-0.128

Sequence	PBM E-score
ACTCGATA	-0.00194
CATCGAAA	-0.158
AATGTCGG	0.254
AATACGCG	0.0739
CCCCTATA	-0.155
TATCATCA	-0.0968
GTCAACTA	-0.144
ACAGCGGT	0.0813
GGCGTTAA	0.31
ATCACGGA	0.352
CCGTGTCG	0.252
ACAGAGCC	-0.156
CACCAATC	-0.0582
ACGAGTCT	-0.144
CTGGCAGA	-0.107
CTACGTCA	-0.169
CACGTTAG	-0.273
AGCTGGAG	-0.157
ATGCGCCC	0.104
ATCGTTTA	-0.228
CGTTGGGA	-0.141
TGAATAAA	-0.178
GACAGTAA	0.0206
ATGAAGGG	-0.25
CTACGGAG	0.32

Sequence	PBM E-score
GCCAGACC	0.0912
CAAGCTAC	-0.183
AGGGCTTG	-0.241
CGGGATAG	0.195
ACCACTGG	-0.0951
CGCCGAAG	0.359
GCCCAGGC	-0.268
ACTGCAAT	-0.0894
GACGCGCC	-0.00929
ACTCGCGA	0.0632
AGCAGCAG	-0.132
CGACCACA	-0.186
ACAATTCC	-0.0172
ACAACGAA	-0.0105
AGGGGGCA	-0.143
CGATCCCA	-0.0718
AAGAAACT	-0.0888
ATCTGTTA	-0.0286
ATTATGGC	-0.0166
CAAAATGA	-0.177
GTGGTATA	-0.167
AACATAAT	0.0438
CCTTATCC	0.14
CCCCCTGA	-0.257
ACGAGCAA	-0.188

Sequence	PBM E-score
CAATGAAC	-0.0456
ACACCACG	-0.19
CTATCGTA	-0.17
CAATTTTC	0.0727
AGATCCTC	-0.0657
ACCATGAG	-0.129
ATGTTTTA	-0.302
AGCATCTG	-0.0944
TAACCTGA	-0.14
AGAGAGCC	-0.2
TACAACCA	-0.0392
CTTTTATA	-0.221
ACGAATCC	-0.00491
AGCTCTCC	-0.106
CCGCAGTC	0.105
CCTTACAG	-0.107
TTGATCAA	-0.141
ACGGACGA	0.359
CAGTAACA	0.00081
CCAAGCCC	-0.0109
GTTGCGGA	0.175
GTGGGATA	-0.0148
